Laboratory results published in the supplement of paper PMC8728848.
The list shows a part of the results.

Tests used:
Assay in all cases: glycan array binding signal (z-score within array); higher = stronger binding
Settings in all cases: glycan notation: IUPAC condensed, linker removed
[1] = molecular target: Neu5Ac(a2-6)Gal(b1-4)GlcNAc(b1-2)Man(a1-3)[Man(a1-6)]Man(b1-4)GlcNAc(b1-4)GlcNAc
Summary of the method: (§1)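 Arrays were curated from the Consortium for Functional Glycomics database, 3228 in total, and kept only where the protein sequence was available. Binding is expressed as a within-array Z-score. This score was averaged across arrays of the same protein sequence at different concentrations or buffers and across linkers, and negative values can be read as non-binding.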

[2] = molecular target: Neu5Ac(a2-6)Gal(b1-4)GlcNAc(b1-2)Man(a1-3)[Neu5Ac(a2-3)Gal(b1-4)GlcNAc(b1-2)Man(a1-6)]Man(b1-4)GlcNAc(b1-4)GlcNAc
Summary of the method: as §1

[3] = molecular target: Neu5Ac(a2-6)Gal(b1-4)GlcNAc(b1-2)Man(a1-3)[Neu5Ac(a2-6)Gal(b1-4)GlcNAc(b1-2)Man(a1-6)]Man(b1-4)GlcNAc(b1-4)GlcNAc
Summary of the method: as §1

[4] = molecular target: Neu5Ac(a2-6)Gal(b1-4)GlcNAc(b1-2)Man(a1-3)[Neu5Ac(a2-6)Gal(b1-4)GlcNAc(b1-2)Man(a1-6)]Man(b1-4)GlcNAc(b1-4)[Fuc(a1-6)]GlcNAc
Summary of the method: as §1

[5] = molecular target: Neu5Ac(a2-6)Gal(b1-4)GlcNAc(b1-2)Man(a1-6)Man(b1-4)GlcNAc(b1-4)GlcNAc
Summary of the method: as §1

[6] = molecular target: Neu5Ac(a2-6)Gal(b1-4)GlcNAc(b1-2)Man(a1-6)[Gal(b1-4)GlcNAc(b1-2)Man(a1-3)]Man(b1-4)GlcNAc(b1-4)GlcNAc
Summary of the method: as §1

[7] = molecular target: Neu5Ac(a2-6)Gal(b1-4)GlcNAc(b1-2)Man(a1-6)[GlcNAc(b1-2)Man(a1-3)]Man(b1-4)GlcNAc(b1-4)GlcNAc
Summary of the method: as §1

[8] = molecular target: Neu5Ac(a2-6)Gal(b1-4)GlcNAc(b1-2)Man(a1-6)[Man(a1-3)]Man(b1-4)GlcNAc(b1-4)GlcNAc
Summary of the method: as §1

[9] = molecular target: Neu5Ac(a2-6)Gal(b1-4)GlcNAc(b1-2)[Neu5Ac(a2-6)Gal(b1-4)GlcNAc(b1-4)]Man(a1-3)[GlcNAc(b1-4)][Neu5Ac(a2-6)Gal(b1-4)GlcNAc(b1-2)[Neu5Ac(a2-6)Gal(b1-4)GlcNAc(b1-6)]Man(a1-6)]Man(b1-4)GlcNAc(b1-4)GlcNAc
Summary of the method: as §1

[10] = molecular target: Neu5Ac(a2-6)Gal(b1-4)GlcNAc(b1-2)[Neu5Ac(a2-6)Gal(b1-4)GlcNAc(b1-4)]Man(a1-3)[GlcNAc(b1-4)][Neu5Ac(a2-6)Gal(b1-4)GlcNAc(b1-4)Man(a1-6)]Man(b1-4)GlcNAc(b1-4)GlcNAc
Summary of the method: as §1

[11] = molecular target: Neu5Ac(a2-6)Gal(b1-4)GlcNAc(b1-2)[Neu5Ac(a2-6)Gal(b1-4)GlcNAc(b1-6)]Man(a1-6)[Neu5Ac(a2-6)Gal(b1-4)GlcNAc(b1-2)Man(a1-3)][GlcNAc(b1-4)]Man(b1-4)GlcNAc(b1-4)GlcNAc
Summary of the method: as §1

[12] = molecular target: Neu5Ac(a2-6)Gal(b1-4)GlcNAc(b1-3)Gal(b1-3)GlcNAc
Summary of the method: as §1

[13] = molecular target: Neu5Ac(a2-6)Gal(b1-4)GlcNAc(b1-3)Gal(b1-4)GlcNAc
Summary of the method: as §1

[14] = molecular target: Neu5Ac(a2-6)Gal(b1-4)GlcNAc(b1-3)Gal(b1-4)GlcNAc(b1-2)Man(a1-3)[Neu5Ac(a2-6)Gal(b1-4)GlcNAc(b1-3)Gal(b1-4)GlcNAc(b1-2)Man(a1-6)]GalNAc
Summary of the method: as §1

[15] = molecular target: Neu5Ac(a2-6)Gal(b1-4)GlcNAc(b1-3)Gal(b1-4)GlcNAc(b1-3)Gal(b1-4)GlcNAc
Summary of the method: as §1

[16] = molecular target: Neu5Ac(a2-6)Gal(b1-4)GlcNAc(b1-3)Gal(b1-4)GlcNAc(b1-3)Gal(b1-4)GlcNAc(b1-2)Man(a1-3)[Neu5Ac(a2-6)Gal(b1-4)GlcNAc(b1-3)Gal(b1-4)GlcNAc(b1-3)Gal(b1-4)GlcNAc(b1-2)Man(a1-6)]GalNAc
Summary of the method: as §1

[17] = molecular target: Neu5Ac(a2-6)Gal(b1-4)GlcNAc(b1-3)Gal(b1-4)GlcNAc(b1-3)GalNAc
Summary of the method: as §1

[18] = molecular target: Neu5Ac(a2-6)Gal(b1-4)GlcNAc(b1-3)Gal(b1-4)GlcNAc(b1-3)[Neu5Ac(a2-6)Gal(b1-4)GlcNAc(b1-3)Gal(b1-4)GlcNAc(b1-6)]GalNAc
Summary of the method: as §1

[19] = molecular target: Neu5Ac(a2-6)Gal(b1-4)GlcNAc(b1-3)Gal(b1-4)GlcNAc(b1-6)[Gal(b1-3)]GalNAc
Summary of the method: as §1

[20] = molecular target: Neu5Ac(a2-6)Gal(b1-4)GlcNAc(b1-3)Gal(b1-4)[Fuc(a1-3)]GlcNAc(b1-3)Gal(b1-4)[Fuc(a1-3)]GlcNAc
Summary of the method: as §1

[21] = molecular target: Neu5Ac(a2-6)Gal(b1-4)GlcNAc(b1-3)GalNAc
Summary of the method: as §1

[22] = molecular target: Neu5Ac(a2-6)Gal(b1-4)GlcNAc(b1-3)[Neu5Ac(a2-6)Gal(b1-4)GlcNAc(b1-6)]GalNAc
Summary of the method: as §1

[23] = molecular target: Neu5Ac(a2-6)Gal(b1-4)GlcNAc(b1-6)GalNAc
Summary of the method: as §1

[24] = molecular target: Neu5Ac(a2-6)Gal(b1-4)GlcNAc(b1-6)[Gal(b1-3)GlcNAc(b1-3)]Gal(b1-4)Glc
Summary of the method: as §1

[25] = molecular target: Neu5Ac(a2-6)Gal(b1-4)GlcNAc(b1-6)[Gal(b1-3)]GalNAc
Summary of the method: as §1

[26] = molecular target: Neu5Ac(a2-6)Gal(b1-4)GlcNAc6S
Summary of the method: as §1

Neu5Ac(a2-6)GalNAc = molecular target: Neu5Ac(a2-6)GalNAc
Summary of the method: as §1

[27] = molecular target: Neu5Ac(a2-6)GalNAc(b1-4)GlcNAc
Summary of the method: as §1

[28] = molecular target: Neu5Ac(a2-6)GalNAc(b1-4)GlcNAc6S
Summary of the method: as §1

[29] = molecular target: Neu5Ac(a2-6)GlcNAc(b1-4)GlcNAc
Summary of the method: as §1

[30] = molecular target: Neu5Ac(a2-6)GlcNAc(b1-4)GlcNAc(b1-4)GlcNAc
Summary of the method: as §1

B1: Epa7 (Candida glabrata), Q6DTM6_CANGB (protein)
chain: MGSSHHHHHHSSGLVPRGSHMKDDYSSFLSNNNLGWTDPTEFPLGCSPNVTTPKNGLSMELYSYDLRKNGSYPCWDAAYLDPNYPRTGYKSHRLLAKVDGVTGNINFYYHATKGCTPEIDHLPASYNYPKPLTMTNFTMLLYGYFKPKVTGYHTFTISADDLLFVNFGAGNAFDCCKRESSADDFGNYQAYAVWGSQTAKDDLTVHLDAGLYYPIRIFFNNREYDAELSLTLKTESDSNPVIDFSDYFYSFDDTKDGCPGLVSYDTS
[1]
  glycan array binding signal (z-score): -0.226
[2]
  glycan array binding signal (z-score): -0.231
[3]
  glycan array binding signal (z-score): -0.237
[4]
  glycan array binding signal (z-score): -0.235
[5]
  glycan array binding signal (z-score): -0.243
[6]
  glycan array binding signal (z-score): -0.22
[7]
  glycan array binding signal (z-score): -0.227
[8]
  glycan array binding signal (z-score): -0.239
[9]
  glycan array binding signal (z-score): -0.234
[10]
  glycan array binding signal (z-score): -0.239
[11]
  glycan array binding signal (z-score): -0.233
[12]
  glycan array binding signal (z-score): -0.227
[13]
  glycan array binding signal (z-score): -0.258
[14]
  glycan array binding signal (z-score): -0.215
[15]
  glycan array binding signal (z-score): -0.228
[16]
  glycan array binding signal (z-score): -0.217
[17]
  glycan array binding signal (z-score): -0.228
[18]
  glycan array binding signal (z-score): -0.224
[19]
  glycan array binding signal (z-score): 1.02
[20]
  glycan array binding signal (z-score): -0.17
[21]
  glycan array binding signal (z-score): -0.013
[22]
  glycan array binding signal (z-score): -0.196
[23]
  glycan array binding signal (z-score): -0.217
[24]
  glycan array binding signal (z-score): -0.178
[25]
  glycan array binding signal (z-score): 1.19
[26]
  glycan array binding signal (z-score): -0.257
Neu5Ac(a2-6)GalNAc
  glycan array binding signal (z-score): -0.264
[27]
  glycan array binding signal (z-score): -0.259
[28]
  glycan array binding signal (z-score): -0.237
[29]
  glycan array binding signal (z-score): -0.241
[30]
  glycan array binding signal (z-score): -0.237
